Test results published in paper PMC8286256.
Like-named read-outs stand apart in the source and are kept apart here. These are yes or no findings as the source states them, for the method shown. For part of these data: In cells and extracts the contact can be indirect. Some binding calls cover weakened binding; strength is not graded here. One block for each molecule: values may come before it.

Sequences of proteins named here, by UniProt entry; tags and fusion partners are left off.
UniProt Q04206: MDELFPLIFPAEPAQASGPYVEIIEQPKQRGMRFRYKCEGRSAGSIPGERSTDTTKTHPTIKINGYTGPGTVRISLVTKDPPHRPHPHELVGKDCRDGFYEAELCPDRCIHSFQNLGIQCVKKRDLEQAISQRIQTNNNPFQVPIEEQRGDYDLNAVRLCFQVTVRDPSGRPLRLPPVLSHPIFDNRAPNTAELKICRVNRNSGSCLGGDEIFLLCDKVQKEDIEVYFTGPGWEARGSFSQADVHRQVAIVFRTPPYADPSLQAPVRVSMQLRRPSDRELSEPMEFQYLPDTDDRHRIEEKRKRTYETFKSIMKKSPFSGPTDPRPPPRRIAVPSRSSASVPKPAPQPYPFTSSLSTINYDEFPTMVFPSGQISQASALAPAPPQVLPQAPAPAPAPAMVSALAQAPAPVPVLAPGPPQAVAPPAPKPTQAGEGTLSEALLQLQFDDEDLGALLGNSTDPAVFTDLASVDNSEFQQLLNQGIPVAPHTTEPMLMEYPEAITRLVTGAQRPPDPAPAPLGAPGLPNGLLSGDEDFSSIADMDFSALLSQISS
UniProt Q04207: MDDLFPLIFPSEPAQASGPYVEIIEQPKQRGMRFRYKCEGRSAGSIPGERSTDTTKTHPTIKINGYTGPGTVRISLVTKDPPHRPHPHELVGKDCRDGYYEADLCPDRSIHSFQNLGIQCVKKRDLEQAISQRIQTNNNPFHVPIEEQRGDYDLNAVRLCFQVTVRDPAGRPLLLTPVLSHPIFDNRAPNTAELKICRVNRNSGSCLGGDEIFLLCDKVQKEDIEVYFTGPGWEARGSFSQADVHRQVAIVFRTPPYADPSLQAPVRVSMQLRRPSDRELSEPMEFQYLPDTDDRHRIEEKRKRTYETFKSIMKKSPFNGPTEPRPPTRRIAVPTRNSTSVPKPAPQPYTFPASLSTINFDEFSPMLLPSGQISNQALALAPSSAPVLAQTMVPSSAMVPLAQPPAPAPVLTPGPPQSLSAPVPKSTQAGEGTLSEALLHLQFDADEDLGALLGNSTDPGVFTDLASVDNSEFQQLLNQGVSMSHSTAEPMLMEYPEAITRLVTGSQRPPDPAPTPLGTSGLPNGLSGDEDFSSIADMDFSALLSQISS
UniProt Q9Z1E3: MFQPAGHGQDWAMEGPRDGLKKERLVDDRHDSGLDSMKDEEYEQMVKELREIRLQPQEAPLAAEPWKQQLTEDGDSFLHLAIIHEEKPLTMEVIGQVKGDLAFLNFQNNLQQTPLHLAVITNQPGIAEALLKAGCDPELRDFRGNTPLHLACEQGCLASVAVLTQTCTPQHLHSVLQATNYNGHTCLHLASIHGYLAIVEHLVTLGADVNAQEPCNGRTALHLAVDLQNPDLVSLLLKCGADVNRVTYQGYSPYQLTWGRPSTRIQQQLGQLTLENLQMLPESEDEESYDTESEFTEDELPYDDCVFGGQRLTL

Key:
EGFP-p65 = EGFP-p65 (UniProt Q04206); assay: co-IP; lysate supernatants of HEK293 cells transiently co-transfected with FLAG-DJ-1 or FLAG-DJ-1(L166P) and EGFP or EGFP-p65; immunoprecipitated with polyclonal anti-GFP antibody; immunoblot
GST-DJ-1(L166P) = GST-DJ-1(L166P) (UniProt Q99497); assay: pull-down; GST, GST-DJ-1 or GST-DJ-1(L166P) (20 μg) on glutathione-Sepharose 4B incubated with His-p65 (50 μg) in an ice bath for 4 h; washed with cold PBS five times; immunoblot; both purified
GST-DJ-1 = GST-DJ-1 (UniProt Q99497); assay: as above
[1] = molecular target: p65 (endogenous) (mouse (endogenous in BV2)) (UniProt Q04207); assay: co-IP; supernatants of BV2 cell lysates (untransfected, or transfected with si-Ctrl or si-DJ-1 for 72 h); immunoprecipitated with polyclonal anti-p65 antibodies or normal rabbit IgG; immunoblot
[2] = molecular target: p65 (endogenous) (mouse (endogenous in BV2)) (UniProt Q04207); assay: as above; remark: listed apart in the source

Molecule: FLAG-DJ-1(L166P) (from UniProt Q99497 1-189)
- binding (EGFP-p65): no binding

B1: endogenous DJ-1 (protein, UniProt Q99LX0 1-189)
chain: MASKRALVILAKGAEEMETVIPVDVMRRAGIKVTVAGLAGKDPVQCSRDVMICPDTSLEDAKTQGPYDVVVLPGGNLGAQNLSESPMVKEILKEQESRKGLIAAICAGPTALLAHEVGFGCKVTTHPLAKDKMMNGSHYSYSESRVEKDGLILTSRGPGTSFEFALAIVEALVGKDMANQVKAPLVLKD
- binding [2]: binds

Continued, in another order:

- binding (EGFP-p65): binds
Molecule: FLAG-DJ-1 (from UniProt Q99497 1-189)

- binding (GST-DJ-1): binds
Molecule: His-p65 (from UniProt Q04206 1-551)
- binding (GST-DJ-1(L166P)): no binding (tested: His-p65 50 μg, GST-DJ-1(L166P) 20 μg)

- binding [1]: binds
Molecule: NF-κB inhibitor α (IκBα) (from UniProt Q9Z1E3 1-314)
